# Source: PubChem BioAssay AID1721 (National Center for Advancing Translational Sciences (NCATS), 2009)
# Among all 290,000 compounds or so, about 1,100 (0.38%) were called active. Inconclusive means that the source gave no clear call. Such entries were picked first, then a sample of the others. Calls come from the whole dose curve; as a rule, active = well fitted inhibition curve with a large enough effect; inconclusive = small, poorly fitted or top-dose-only effect, or another doubt; inactive = no such curve, though single readings can be large or run the other way. Potencies of inconclusive entries are doubtful fits and often do not repeat.
# Target: Pyruvate kinase (Leishmania mexicana) (UniProt Q27686)
# Assay: qHTS Assay for Inhibitors of Leishmania Mexicana Pyruvate Kinase (LmPK)
# Settings: purified LmPK, Kinase-Glo ATP luminescence, 1 h; activity change, negative = inhibition: at 57.5 µM (top of the series) unless noted
# Method in brief: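 qHTS format; LmPK 0.1 nM; substrates PEP 0.5 mM and ADP 0.1 mM. One-hour room-temperature incubation, then coupled luciferase luminescence; 0.5 nM enzyme wells mark activation.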
# % is set by controls: 0 for no effect and ±100 for the full control effect; potency is the fitted concentration of half-maximal effect; tags give direction and shape of the fitted curve.
# Sequence of UniProt Q27686 (Q27686 whole entry, looked up): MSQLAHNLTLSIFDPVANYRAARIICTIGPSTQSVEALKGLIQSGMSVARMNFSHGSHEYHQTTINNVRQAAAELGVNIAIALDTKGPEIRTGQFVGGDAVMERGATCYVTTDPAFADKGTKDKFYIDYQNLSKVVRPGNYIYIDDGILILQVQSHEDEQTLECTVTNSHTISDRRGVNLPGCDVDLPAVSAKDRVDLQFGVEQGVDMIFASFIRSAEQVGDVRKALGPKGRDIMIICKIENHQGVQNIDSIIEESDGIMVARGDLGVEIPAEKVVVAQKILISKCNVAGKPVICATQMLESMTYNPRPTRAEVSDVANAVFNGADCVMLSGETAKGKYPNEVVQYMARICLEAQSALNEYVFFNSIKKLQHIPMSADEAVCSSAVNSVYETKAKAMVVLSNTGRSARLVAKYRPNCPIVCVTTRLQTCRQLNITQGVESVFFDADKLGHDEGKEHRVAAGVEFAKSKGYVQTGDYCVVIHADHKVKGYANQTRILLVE
SMILES,Potency,"activity change, negative = inhibition"
O=C(Nc1ccc(N2CCCC2)c(Cl)c1)c1cccs1,"inconclusive: 15.8 µM [falling, partial curve]",
O=C(N=C1N=C2C=CC(Br)=CN2Cc2ccccc21)c1ccc([N+](=O)[O-])cc1[N+](=O)[O-],"inconclusive: 20 µM [falling, partial curve]",
c1ccc2nc(-c3nc4ccccc4o3)ccc2c1,active: 3.16 µM,
O=C(Nc1ccc2c(c1)OCO2)c1ccc(Cl)nc1,,inactive: 5.29%
O=C(Nc1ccc(Br)cc1)c1cc2ccccn2n1,,inactive: -5.6%
COc1ccc(C(=O)Nn2c(SCc3cccc([N+](=O)[O-])c3)nc3ccccc3c2=O)cc1,,inactive: -7.48%
Clc1ccc2nc(-c3ccc4c(c3)OCO4)cn2c1,"inconclusive: 11.2 µM [falling, partial curve]",
O=C(c1ccc(CS(=O)(=O)c2c(Cl)cccc2Cl)o1)N1CCCC1,,inactive: 9.37%
Cc1cccc(-n2c(-c3csc(C)c3)n[nH]c2=S)c1,active: 4.47 µM,
N/C(=N\OCc1ccccc1)c1nonc1N,"inconclusive: 12.6 µM [falling, partial curve]",
CCCC(=O)NC(c1ccc(N(C)C)cc1)c1ccc2cccnc2c1O (centres undefined),,inactive: 7.1%
O=C(/C=C\Nc1cccc(F)c1)c1cccs1,"inconclusive: 14.1 µM [falling, partial curve]",
Cn1cc([N+](=O)[O-])c(C(=O)Nc2ccc3c(c2)OCCO3)n1,active: 14.1 µM,
Cc1cccc(-c2cc3nc(C)cc(C)n3n2)c1,,inactive: -26.9%
O=C1N=C(N2CCCC2)S/C1=C\c1ccccc1,,inactive: -4.74%
Cc1nn2c(-c3cccc(NC(=O)CSc4nc5ccccc5o4)c3)nnc2c2ccccc12,,inactive: 0.662%
CN(C)c1ccc(/C=N/NC(=O)c2ccnn2C)cc1,active: 8.91 µM,
COc1cccc(NC(=O)COc2ccccc2C(N)=O)c1,"inconclusive: 14.1 µM [falling, partial curve]",
Cc1ccc(Nc2nnc(SCC(=O)NCCN3C(=O)CSC3=O)s2)cc1C,"inconclusive: 25.1 µM [falling, single point]",
N/C(=N\OC(=O)c1ccc(Cl)cc1Cl)c1ccccn1,active: 7.08 µM,
Cc1ccsc1C(=O)NCc1ccc(F)cc1,,inactive: -1.12%

SMILES,Potency,"activity change, negative = inhibition"
CC1(C)CC(=O)C2=C(C1)c1c(ccc3ccccc13)NC2c1ccco1 (centres undefined),,inactive: 10.5%
Brc1ccc(-c2nnc(SCCC3OCCCO3)o2)cc1,,inactive: -0.84%
Cc1ccc(-n2c(COc3cccc(C)c3)n[nH]c2=S)cc1,"inconclusive: 14.1 µM [falling, partial curve]",
CNC[C@H](Cc1ccccc1)NC[C@@H](Cc1cccc2ccccc12)NCCc1ccc(C)cc1,,inactive: 2.81%
O=C(Nc1ccc(NC(=O)C2CC2)nc1)c1ccccn1,active: 14.1 µM,
CC(=O)C1=C(O)C(=O)N(CCCN2CCOCC2)C1c1ccccc1[N+](=O)[O-] (centres undefined),,inactive: -9.06%
S=c1[nH]nc(COc2ccc(Cl)cc2)n1C1CCCCC1,"inconclusive: 25.1 µM [falling, partial curve]",
Cc1occc1C(=O)Nc1ccc2c(c1)CCC2,active: 12.6 µM,
CCOc1ccc(-c2cnc3ccccc3n2)cc1,"inconclusive: 12.6 µM [falling, partial curve]",
CN(C)c1ccc(N=Nc2nc3ccccc3n2C)cc1,active: 3.98 µM,
O=C(N/N=C/c1ccc2c(c1)OCO2)c1ccccn1,active: 11.2 µM,
CC(C)c1cc(-c2n[nH]c(=S)n2Cc2ccccc2)cs1,"inconclusive: 22.4 µM [falling, single point]",
S=c1[nH]nc(-c2cccc(Cl)c2)n1Cc1ccccc1,"inconclusive: 22.4 µM [falling, single point]",
COc1cccc(-c2nc3ccc(O)cc3c(=O)o2)c1,"inconclusive: 15.8 µM [falling, partial curve]",
Cc1cc(C)c(C#N)c(SCC2COc3ccccc3O2)n1 (centres undefined),,inactive: 1.96%
O=C(Nc1ncccc1Cl)c1ccc2c(c1)OCCO2,"inconclusive: 25.1 µM [falling, single point]",
OCC1CCCN(Cc2cn(Cc3ccccc3)nc2-c2cc3ccccc3o2)C1 (centres undefined),,inactive: 0.3%
OC(CNCc1ccccc1)(c1ccc(F)cc1)c1ccc(F)cc1,,inactive: 9.75%
Cc1ccccc1OCC(=O)NC1=NCCS1,"inconclusive: 31.6 µM [falling, single point]",
Cc1ccc2c(c1)Cc1nc3ccccc3nc1-2,active: 17.8 µM,
Cc1cc(/C=C(\C#N)C(=O)N2CCCCC2)cc(C)c1O,,inactive: -2.8%

SMILES,Potency,"activity change, negative = inhibition"
Cc1ccc(OCc2n[nH]c(=S)n2-c2ccccc2)cc1,"inconclusive: 31.6 µM [falling, single point]",
O=C(O)c1cccc(COc2ccc(CO)cc2Cl)c1,"inconclusive: 15.8 µM [falling, partial curve]",
Clc1ccc(/C=C/c2nc3ccccc3[nH]2)c(Cl)c1,active: 14.1 µM,
CCCCNS(=O)(=O)c1ccc(S(=O)(=O)NCc2ccncc2)cc1,,inactive: 3.72%
O=C1C(Cl)=C(N2CCCCC2)C(=O)C(Cl)=C1c1cnc(N2CCCCC2)s1,active: 20 µM,
CCc1ccc(OCC(=O)N2CCN(c3ccccn3)CC2)c(Br)c1,,inactive: -4.41%
O=C(Nc1nc2cc3c(cc2s1)OCCO3)c1cccs1,"inconclusive: 14.1 µM [falling, partial curve]",
COc1ccc(/C=N/NC(=O)c2cc3c(OC)ccc(OC)c3[nH]2)cc1O,"inconclusive: 39.8 µM [falling, single point]",
S=c1[nH]c(-c2ccccc2)cn1/N=C/c1cccs1,"inconclusive: 2.82 µM [falling, full curve, poor fit]",
O=C(O)c1ccc2c(c1)-c1nc3ccccc3n1C2=O,"inconclusive: 28.2 µM [falling, single point]",
c1ccc2[nH]c(NN=C3CCCCCC3)nc2c1,"inconclusive: 25.1 µM [falling, partial curve]",
O=C1NN(c2ccccc2)C(=O)/C1=C\c1ccc(-c2cc([N+](=O)[O-])ccc2O)o1,active: 17.8 µM,
Cc1nc(-c2ccc(C(=O)Nc3cccc(Br)c3)cc2)cs1,"inconclusive: 15.8 µM [falling, partial curve]",
COc1ccc(/C=C/C(=O)c2cc3cccc(OC)c3oc2=O)cc1,,inactive: 1.47%
CCn1cc(C(=O)O)c(=O)c2cc(F)c(N3CCN(C(=S)NC(=O)c4ccc(F)cc4)CC3)cc21,"inconclusive: 14.1 µM [falling, partial curve]",
Cc1ccc(-c2csc3n[nH]c(=S)n23)cc1,"inconclusive: 0.891 µM [falling, full curve]",
Cn1cnc2c(N/N=C/c3cccs3)ncnc21,"inconclusive: 31.6 µM [falling, single point]",
CCOc1cccc(C=Nc2cc(C)cc(C)c2O)c1O,active: 22.4 µM,
O=C(NCC1CCCO1)C(c1ccncc1)N(Cc1cccs1)C(=O)Cn1nnc(-c2ccc(F)cc2)n1 (centres undefined),,inactive: -6.98%
C(=N\Nc1nc2ccccc2[nH]1)/c1cccs1,active: 14.1 µM,
CC(C)Cc1ccc(C(C)C(N)=NCCc2ccccc2)cc1 (centres undefined),,inactive: 0.201%

SMILES,Potency,"activity change, negative = inhibition"
Cc1ccc(C(=O)NCCc2csc(-c3cccnc3)n2)cc1,,inactive: -1.65%
O=C(CSc1nnc2ccccn12)c1ccc2c(c1)OCCO2,"inconclusive: 28.2 µM [falling, single point]",
Nc1nc(Nc2ccccc2)nc2ccccc12,active: 15.8 µM,
C=CCN1C(=O)/C(=c2\sc3nc(=O)c(Cc4ccc(OC)c(OC)c4)nn3c2=O)c2ccccc21,"inconclusive: 39.8 µM [falling, single point]",
Cc1cccc(C(=O)n2c(=S)nc3ccccn32)c1,active: 12.6 µM,
C=CCOc1ccc(C=Nc2cccc(Cl)c2)c(O)c1,"inconclusive: 20 µM [falling, partial curve]",
CC(=O)N1CCOc2ccc(S(=O)(=O)N3CC(C)CC(C)C3)cc21 (centres undefined),,inactive: -0.847%
CCOC(=O)C1=C(Cc2ccc(Cl)cc2)C(=O)c2ccccc2C1=O,"inconclusive: 35.5 µM [falling, single point]",
CC(OC(=O)c1ccc2ccccc2n1)C(=O)c1ccccc1 (centres undefined),"inconclusive: 31.6 µM [falling, single point]",
N/C(=N\OC(=O)c1cccc(F)c1)c1ccccn1,"inconclusive: 15.8 µM [falling, partial curve]",
CCCCn1c(-c2csc3c2CCCC3)n[nH]c1=S,active: 12.6 µM,
CCNC(=O)COC(=O)c1ccc(-c2nc3ccccc3s2)s1,"inconclusive: 15.8 µM [falling, partial curve]",
Cc1cc(=O)oc2ccc(OCC(=O)N(Cc3ccc(F)cc3)Cc3ccco3)cc12,,inactive: -0.831%
CCCCOC(=O)N1CCOCCOCCN(C(=O)OCCCC)CCOCCOCC1,,inactive: -2.06%
Cc1c(Cl)c(-c2n[nH]c(=S)n2Cc2ccco2)nn1C,"inconclusive: 17.8 µM [falling, partial curve]",
Cc1nn(C)cc1/C=C/C(=O)c1ccccc1,"inconclusive: 25.1 µM [falling, partial curve]",
COc1cccc(C(=O)Nc2ccc(C)cc2)c1,"inconclusive: 12.6 µM [falling, partial curve]",
O=C(c1ccc(F)c([N+](=O)[O-])c1)N1CC2CC(C1)c1cccc(=O)n1C2 (centres undefined),,inactive: 0.948%
CCCc1cc(-c2n[nH]c(=S)n2Cc2ccccc2)cs1,"inconclusive: 25.1 µM [falling, single point]",
S=C(c1ccc(-c2ccc(Cl)c(Cl)c2)o1)N1CCOCC1,"inconclusive: 22.4 µM [falling, single point]",
C[C@]12CCC(=O)C[C@@H]1CC[C@@H]1[C@@H]2CC[C@]2(C)[C@@H](C(=O)COC(=O)CCC(=O)O)CC[C@@H]12,inactive,
